# According to PubChem BioAssay AID1347120 (National Center for Advancing Translational Sciences (NCATS), 2019):
# Out of some 390,000 compounds screened, about 930 (0.24%) were called active. The shares of active, inactive and inconclusive entries below differ from those in the screen. Calls follow the shape of the dose curve; as a rule, active = well fitted activation curve with a large enough effect; inconclusive = small, poorly fitted or top-dose-only effect; inactive = no such curve, though single readings can be large or run the other way. A potency beside an inconclusive call is a rough fit, not a confirmed value.
# Experiment: qHTS for Suppressors of FUS Proteinopathy: Primary screen using FUS-linked yeast assay; also: nearly all actives have a fitted effect of over 55% in size;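 as to growth rescue (activation): plate controls were DMSO vehicle for no effect and reference control for full effect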
# Conditions: S. cerevisiae FUS-expressing, OD600, 24 h; Potency: growth rescue; growth rescue (activation): at 76.6 µM (top of the series)
# Summary of the method: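 Restored growth of FUS-toxic S. cerevisiae, read as 600 nm absorbance after 24 h at 30C in galactose medium (starting OD 0.005). Controls CP55940 and DMSO.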
# Potency is read from the fitted curve at half-maximal effect; tags tell the direction and shape of the fitted curve.
Structure (SMILES),Potency,growth rescue (activation)
O=C(CC1N=C2c3ccccc3N=C(SCC(=O)Nc3ccc(F)cc3)N2C1=O)NCc1ccc2c(c1)OCO2 (centres undefined),"inconclusive: 50.1 µM [activator, single point]",–
CSc1ncc(Cl)c(C(=O)N(Cc2ccc(C(C)C)cc2)C2CCS(=O)(=O)C2)n1 (centres undefined),"inconclusive: 31.6 µM [activator, single point]",–
Cc1ccccc1Cn1c(SCc2ccc(C(=O)NCCc3ccccc3)cc2)nc2ccncc21,"inconclusive: 20 µM [activator, partial curve]",–
COc1ccc(C(=O)Nc2nc3n(n2)C(c2ccc(F)cc2)C=C(c2ccc(Cl)cc2)N3)cc1 (centres undefined),"inconclusive: 35.5 µM [activator, partial curve, poor fit]",–
Cc1ccc(NC(=O)COC(=O)c2ccc(NC(=O)CC#N)cc2)cc1S(=O)(=O)N1CCOCC1,"inconclusive: 17.8 µM [activator, partial curve, poor fit]",–
Cc1ccc(S(=O)(=O)Nc2ccccc2C(=O)OC(C)C(=O)Nc2ccc3ccccc3c2)cc1[N+](=O)[O-] (centres undefined),"inconclusive: 12.6 µM [activator, partial curve, poor fit]",–
CCOC(=O)c1c(NC(=O)CSc2nnc(-c3ccccc3C)n2C)sc(C(C)=O)c1C,"inconclusive: 28.2 µM [activator, single point]",–
CCCOc1ccc(C2NC(=S)NC(C)=C2C(=O)c2ccccc2)cc1OC (centres undefined),"inconclusive: 28.2 µM [activator, single point]",–
COc1ccc(O)c(CN2CCN(C/C=C/c3ccccc3)CC2)c1,–,inactive: 19%
CCOc1ccc(S(=O)(=O)c2c(C(=O)c3ccccc3)cnc3cc4c(cc23)OCCO4)cc1,"inconclusive: 20 µM [activator, partial curve, poor fit]",–
COc1ccc(-c2cc(C(=O)Nc3cc(S(N)(=O)=O)ccc3C)c3ccccc3n2)cc1OC,"inconclusive: 7.08 µM [activator, full curve]",–
COc1cc(/C=C/C(=O)O)cc(S(=O)(=O)Nc2cc(S(=O)(=O)N3CCCCC3)ccc2Cl)c1OC,"inconclusive: 22.4 µM [activator, partial curve]",–
C=CCC[C@H](Cc1ccc(F)cc1)C(=O)OC[C@@H](Cc1c[nH]c2ccccc12)NC(=O)[C@@H](CC=C)CC(=O)N[C@@H](CO)Cc1ccccc1,–,inactive: 31.9%
Cc1cccc(/C=C/c2onc(C)c2S(=O)(=O)N2CCC(C(=O)N3CCCCCC3)CC2)c1,"inconclusive: 28.2 µM [activator, single point]",–
CSc1ccc(C(c2c(C(=O)O)[nH]c3ccccc23)c2c(C(=O)O)[nH]c3ccccc23)cc1,"inconclusive: 50.1 µM [activator, single point]",–
CCOc1nc(Nc2ccc(Cl)cc2)nc(OCC)n1,–,inactive: 1.8%
COc1ccc(C)c(NC(=O)[C@@H]2CCCN2S(=O)(=O)c2cccc3cccnc23)c1,–,inactive: 7.65%
O=c1[nH]c2ccc([N+](=O)[O-])cc2nc1/C=C(\O)c1ccccc1,–,inactive: -25.7%
CCCCCNC(=O)C(c1ccccc1)n1c(=O)c(-c2cc3ccccc3[nH]2)nc2ccccc21 (centres undefined),"inconclusive: 8.91 µM [activator, full curve]",–
Cc1ccc(S(=O)(=O)c2nnn3c2nc(N2CCC(C(N)=O)CC2)c2cc(Cl)ccc23)cc1C,active: 25.1 µM,–
CC1CCCN(c2ncnc3c2cnn3-c2ccccc2)C1 (centres undefined),–,inactive: 22.2%
CCCCCCN1C[C@H](n2cc(COC(=O)c3ccccc3)nn2)[C@@H](O)C[C@@H]1c1ccc(C)cc1,"inconclusive: 17.8 µM [activator, partial curve, poor fit]",–

Structure (SMILES),Potency,growth rescue (activation)
COCc1cc(C)nc2sc(C(=O)N3CCCCC3)c(N)c12,–,inactive: 11.2%
COc1ccc(-c2cc(C3CCN(C(=O)OC(C)(C)C)CC3)[nH]n2)cc1,"inconclusive: 31.6 µM [activator, partial curve, poor fit]",–
COc1ccc(N2CCN(S(=O)(=O)CCNC(=O)c3c(F)cccc3Cl)CC2)cc1,–,inactive: -8.15%
Cn1cccc1Cc1nnc(SCC(=O)NCc2ccco2)n1CCc1ccccc1,"inconclusive: 56.2 µM [activator, partial curve, poor fit]",–
O=[N+]([O-])c1ccc2oc(C3CCCCC3)nc2c1,"inconclusive: 44.7 µM [activator, single point]",–
O=C1/C(=C\c2ccc(O)c(O)c2)C(c2ccccc2)=NN1c1ccccc1,"inconclusive: 35.5 µM [activator, single point]",–
CN1/C(=C/C(=S)NC(=O)C2(C)CC2(Cl)Cl)C(C)(C)c2ccccc21 (centres undefined),"inconclusive: 12.6 µM [activator, partial curve, poor fit]",–
Cc1cccc(Nc2nnc(SCC(=O)c3ccc(Br)s3)s2)c1C,–,inactive: 21.6%
COc1cc(/C=C/C(=O)OCC(=O)Nc2cc(S(=O)(=O)N3CCCCC3)ccc2C)ccc1O,active: 25.1 µM,–
CC(C)(C)c1ccc(C(=O)Nc2ccc3c(c2)CCCN3C(=O)c2cccs2)cc1,–,inactive: 41.4%
C#CCNC(=O)C[C@@H]1C[C@@]2(C(=O)OC)CC(C)(C)CC=C2N(CCCCCCCC)C1=O,"inconclusive: 17.8 µM [activator, partial curve, poor fit]",–
CC(=O)Nc1cc(-c2ccccc2)ccc1O,–,inactive: 4.15%
CCCCNc1c(-c2ccc(OC)c(SC3CCCCC3)c2)nc2cc(C)ccn12,"inconclusive: 28.2 µM [activator, partial curve]",–
COc1cc(/C=C2\CC/C(=C\c3cc(OC)c(O)c(OC)c3)C2=O)cc(OC)c1O,"inconclusive: 22.4 µM [activator, partial curve]",–
CCOc1ccccc1Nc1sc(C(=O)c2ccccc2)c(N)c1C(=O)Nc1ccccc1,"inconclusive: 7.94 µM [activator, full curve, poor fit]",–
N#Cc1ccc(OCC(=O)NCCCN2CCCC2=O)cc1,–,inactive: 1.98%
O=C(CSc1nnc(-c2cc3ccccc3cc2O)n1Cc1ccco1)N1CCc2ccccc2C1,active: 15.8 µM,–
CC(=O)N1CCc2nc3sc(C(=O)c4ccc(F)cc4)c(N)c3c(C(F)(F)F)c2C1,–,inactive: 39%
Cc1oc2nc(SCC(=O)NC3CCCCC3)nc(N)c2c1C,"inconclusive: 31.6 µM [activator, single point]",–
CCc1ccc(NC(=O)C(=O)NCC(c2cccnc2)N2CCN(c3ccc(F)cc3)CC2)cc1 (centres undefined),–,inactive: -19.3%
CC(=O)c1cccc(NC(=O)c2nc(-c3ccccc3)n(-c3cccc(Cl)c3)n2)c1,"inconclusive: 22.4 µM [activator, partial curve, poor fit]",–
CCc1ccc(NC(=O)CN(c2ccc(C)cc2)S(=O)(=O)c2cccs2)cc1,–,inactive: -13.5%

Structure (SMILES),Potency,growth rescue (activation)
NC1=NC(=O)/C(=C/c2cn(Cc3ccccc3)c3ccccc23)S1,"inconclusive: 31.6 µM [activator, single point]",–
COc1ccccc1CNC(=O)C(=O)NCC1OCCN1S(=O)(=O)c1ccc(Br)cc1 (centres undefined),"inconclusive: 35.5 µM [activator, single point]",–
CC(=O)Nc1ccc(NC(=O)Cc2sc(-c3cccnc3)nc2-c2ccc(C)cc2)cc1,active: 28.2 µM,–
CNc1ccccc1C(C)(C)c1cc(-c2cccc(Br)c2)no1,–,inactive: 23.3%
Cc1cc(NS(=O)(=O)c2ccc(NC(=O)C(C)Oc3ccc4c(C)cc(=O)oc4c3)cc2)no1 (centres undefined),"inconclusive: 39.8 µM [activator, single point]",–
Cn1nc(C(=O)OCc2ccc(F)cc2)c2ccccc2c1=O,–,inactive: -23.8%
COCCNC(=O)CSc1nc(-c2cc(OC)c(OC)c(OC)c2)[nH]c1-c1ccc(Cl)cc1,"inconclusive: 17.8 µM [activator, partial curve]",–
COc1ccc(N2CCN(C(=O)C(=O)c3c(C)[nH]c4ccccc34)CC2)cc1,"inconclusive: 14.1 µM [activator, partial curve]",–
CCCC(O)c1nc2ccccc2n1Cc1ccccc1OC (centres undefined),–,inactive: 5.55%
CCC1CN(C(=O)N2CCC(C(=O)NCCc3ccccc3Cl)CC2)c2cc(C)ccc2O1 (centres undefined),"inconclusive: 25.1 µM [activator, single point]",–
Cc1ccc(C)c(NC(=O)c2cc(S(=O)(=O)N3CCCc4ccccc43)ccc2F)c1,–,inactive: 44.6%
CCOC(=O)[C@]12CCCC=C1N(CCC1=CCCCC1)C(=O)[C@H](CC(=O)NCc1cccc(C(F)(F)F)c1)C2,"inconclusive: 25.1 µM [activator, single point]",–
O=C(NCc1ccccc1)C(C1CC1)n1c(=O)c(-c2cc3ccccc3[nH]2)nc2ccccc21 (centres undefined),"inconclusive: 15.8 µM [activator, partial curve, poor fit]",–
Cc1noc(/C=C/N(C)C)c1S(=O)(=O)N1CCCC(C(=O)NC2CCCCC2C)C1 (centres undefined),"inconclusive: 35.5 µM [activator, single point]",–
Cc1nc2ccccc2c(=O)n1-c1ccc(NC(=O)c2cccc([N+](=O)[O-])c2)cc1,"inconclusive: 39.8 µM [activator, single point]",–
CCCCC(=O)NNC(=S)NC(=O)c1ccc([N+](=O)[O-])cc1,–,inactive: -9.49%
CCC1CN(C(=O)NCc2ccc(C)cc2)c2ccccc2O1 (centres undefined),"inconclusive: 50.1 µM [activator, single point]",–
COC(=O)c1cnc(Nc2nc(CN)cs2)nc1C(F)(F)F,–,inactive: -5.73%
NC(=O)c1ccc[n+](CC(=O)NCc2ccc(Cl)cc2)c1,–,inactive: 7.5%
CCCCn1c(N)c(N(CC(C)C)C(=O)c2ccc(COc3ccccc3)o2)c(=O)[nH]c1=O,"inconclusive: 25.1 µM [activator, partial curve, poor fit]",–
